Results as given in PubChem BioAssay AID1745853 (National Center for Advancing Translational Sciences (NCATS), 2022).
The list shows a part of the results. These are further read-outs of the screen, such as a control signal, another cell line or another target. No call is given for them.

Legend:
Assay in all cases: Primary Screen for Target Class Profiling of Small Molecule Inhibitors of Methyltransferases
[1] = target: Glycine N-methyltransferase (Homo sapiens) (UniProt Q14749); details: purified enzyme, MTase-Glo SAH luminescence; measured here: GNMT inhibition; at 40 µM; stronger effect = lower value
Outline: (§1)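 Each enzyme was assayed with SAM and its substrate. SAH formation detected by MTase-Glo luminescence; single-point 40 uM screen[…].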

[2] = target: Guanidinoacetate N-methyltransferase (Homo sapiens) (UniProt Q14353); details: purified enzyme, MTase-Glo SAH luminescence; measured here: GAMT inhibition; at 40 µM; stronger effect = lower value
Outline: as §1

[3] = target: Histamine N-methyltransferase (Homo sapiens) (UniProt P50135); details: purified enzyme, MTase-Glo SAH luminescence; measured here: HNMT inhibition; at 40 µM; stronger effect = lower value
Outline: as §1

[4] = target: Nicotinamide N-methyltransferase (Homo sapiens) (UniProt P40261); details: purified enzyme, MTase-Glo SAH luminescence; measured here: NNMT inhibition; at 40 µM; stronger effect = lower value
Outline: as §1

[5] = target: Phenylethanolamine N-methyltransferase (Homo sapiens) (UniProt P11086); details: purified enzyme, MTase-Glo SAH luminescence; measured here: PNMT inhibition; at 40 µM; stronger effect = lower value
Outline: as §1
On the % scale 0 is the no-effect control and ±100 the full control effect.

Q: With `Clc1ccc(Nc2nnc(Cc3ccncc3)c3ccccc23)cc1` as the compound, how does the activity change, negative = inhibition [1] read?
A: Its activity change, negative = inhibition is -7.71%.

Q: What about the activity change, negative = inhibition [2] of the same compound?
A: Its activity change, negative = inhibition is -8.66%.

Q: And the activity change, negative = inhibition [3]?
A: Its activity change, negative = inhibition is -1.12%.

Q: What about the activity change, negative = inhibition [4] of the same compound?
A: The activity change, negative = inhibition was -30.5%.

Q: What about the activity change, negative = inhibition [5] of the same compound?
A: Its activity change, negative = inhibition is -3.81%.

Q: Which results are given for `CCc1ccc(N2C(=O)c3cc(-c4ccccc4)nn3CC2(C)C(=O)NCCCOC)cc1` (stereo not given)?
A: activity change, negative = inhibition [1]: 1.37%; activity change, negative = inhibition [2]: 4.03%; activity change, negative = inhibition [3]: -1.98%; activity change, negative = inhibition [4]: 5.54%; activity change, negative = inhibition [5]: -10.1%

Q: How did the activity change, negative = inhibition [1] turn out when `CC1(C)CCC2(C(=O)OC3OC(COC4OC(CO)C(O)C(O)C4O)C(O)C(O)C3O)CCC3(C)C(=CCC4C5(C)CCC(OC6OCC(O)C(O)C6O)C(C)(C)C5CCC43C)C2C1O` (stereo not given) was run?
A: Its activity change, negative = inhibition is 0%.

Q: What about the activity change, negative = inhibition [2] of the same compound?
A: Its activity change, negative = inhibition is -11.2%.

Q: What about the activity change, negative = inhibition [3] of the same compound?
A: Its activity change, negative = inhibition is 0.005%.

Q: And the activity change, negative = inhibition [4]?
A: The activity change, negative = inhibition was -21.6%.

Q: What about the activity change, negative = inhibition [5] of the same compound?
A: The activity change, negative = inhibition was -0.357%.

Q: How did the activity change, negative = inhibition [1] turn out when `Cc1cc(O)c2c(c1)C(=O)c1cc(O)cc(O)c1C2=O` was run?
A: Its activity change, negative = inhibition is -61.7%.

Q: And the activity change, negative = inhibition [2]?
A: The activity change, negative = inhibition was -21.1%.

Q: And the activity change, negative = inhibition [3]?
A: Its activity change, negative = inhibition is -41%.

Q: And the activity change, negative = inhibition [4]?
A: The activity change, negative = inhibition was -29.3%.

Q: And the activity change, negative = inhibition [5]?
A: Its activity change, negative = inhibition is -26.2%.

Q: Which results are given for `O=C1NC(=O)/C(=C/c2cccc(C(F)(F)F)c2)S1`?
A: activity change, negative = inhibition [1]: -20.3%; activity change, negative = inhibition [2]: 12.8%; activity change, negative = inhibition [3]: 4.23%; activity change, negative = inhibition [4]: -16.5%; activity change, negative = inhibition [5]: 2.5%

Q: For `Cc1cc(C)cc(N2C(=O)c3ccccc3CC2(C)C(=O)NCc2ccccc2)c1` (stereo not given), which activity change, negative = inhibition [1] is on record?
A: The activity change, negative = inhibition was -0.992%.

Q: And the activity change, negative = inhibition [2]?
A: Its activity change, negative = inhibition is 4.17%.

Q: What about the activity change, negative = inhibition [3] of the same compound?
A: Its activity change, negative = inhibition is -0.184%.

Q: And the activity change, negative = inhibition [4]?
A: The activity change, negative = inhibition was -2.63%.

Q: What about the activity change, negative = inhibition [5] of the same compound?
A: The activity change, negative = inhibition was -1.64%.

Q: What does the source list for `CC1OC(OC2C(OC3C(O[C@H]4CC[C@@]5(C)C(CC[C@]6(C)C5C(=O)CC5=C7CC(C)(C)CC(O)[C@]7(C)CC[C@]56C)C4(C)C)OC(C(=O)O)C(O)C3O)OCC(O)C2O)C(O)C(O)C1O` (stereo not given in full)?
A: activity change, negative = inhibition [1]: -2.85%; activity change, negative = inhibition [2]: 2.05%; activity change, negative = inhibition [3]: 0.642%; activity change, negative = inhibition [4]: -11.7%; activity change, negative = inhibition [5]: 4.56%

Q: How did the activity change, negative = inhibition [1] turn out when `C=C(C=O)[C@]1(O)C[C@@]2(C)C(=CC1=O)C=C[C@H](OC(=O)/C=C/C=C/[C@H](C)CC)[C@@H]2C` was run?
A: The activity change, negative = inhibition was 0%.

Q: And the activity change, negative = inhibition [2]?
A: The activity change, negative = inhibition was -14.9%.

Q: And the activity change, negative = inhibition [3]?
A: Its activity change, negative = inhibition is -1.52%.

Q: What about the activity change, negative = inhibition [4] of the same compound?
A: The activity change, negative = inhibition was -24.3%.

Q: What about the activity change, negative = inhibition [5] of the same compound?
A: Its activity change, negative = inhibition is -1.89%.

Q: What does the source list for `CO[C@@H]1[C@H](O)CCC2(CO2)[C@H]1[C@@]1(C)O[C@@H]1CC=C(C)C` (stereo not given in full)?
A: activity change, negative = inhibition [1]: 0%; activity change, negative = inhibition [2]: 0.415%; activity change, negative = inhibition [3]: -3.99%; activity change, negative = inhibition [4]: -11.3%; activity change, negative = inhibition [5]: -1.93%

Q: How did the activity change, negative = inhibition [1] turn out when `CC(C)CNC(=O)c1ccc2c(=O)n(C(C)C)c3nn(CC(=O)Nc4ccc(C(C)C)cc4)c(=O)n3c2c1` was run?
A: The activity change, negative = inhibition was 5.26%.

Q: And the activity change, negative = inhibition [2]?
A: Its activity change, negative = inhibition is 0%.

Q: What about the activity change, negative = inhibition [3] of the same compound?
A: The activity change, negative = inhibition was 10.2%.

Q: What about the activity change, negative = inhibition [4] of the same compound?
A: The activity change, negative = inhibition was -4.08%.

Q: What about the activity change, negative = inhibition [5] of the same compound?
A: The activity change, negative = inhibition was 5.27%.

Q: Which activity change, negative = inhibition [1] does the source give for `Cc1ccc(C)c(Nc2nn3c(=O)c4ccc(C(=O)NCc5cccnc5)cc4nc3s2)c1` here?
A: Its activity change, negative = inhibition is 3.54%.

Q: And the activity change, negative = inhibition [2]?
A: Its activity change, negative = inhibition is 0.288%.

Q: What about the activity change, negative = inhibition [3] of the same compound?
A: The activity change, negative = inhibition was 6.7%.

Q: What about the activity change, negative = inhibition [4] of the same compound?
A: Its activity change, negative = inhibition is 9.62%.

Q: And the activity change, negative = inhibition [5]?
A: Its activity change, negative = inhibition is 5.42%.

Q: Which results are given for `CCCCN1C(=O)c2cc(C(=O)Nc3cc(Cl)ccc3OC)nn2CC1(C)C(=O)NC1CCCC1` (stereo not given)?
A: activity change, negative = inhibition [1]: 3.46%; activity change, negative = inhibition [2]: 0.876%; activity change, negative = inhibition [3]: 0.335%; activity change, negative = inhibition [4]: 1.68%; activity change, negative = inhibition [5]: 3.04%

Q: Which activity change, negative = inhibition [1] does the source give for `CCCCN1C(=O)c2cc(C(=O)Nc3cccc(OC)c3)nn2CC1(C)C(=O)NC1CCCC1` (stereo not given) here?
A: The activity change, negative = inhibition was 7.39%.

Q: What about the activity change, negative = inhibition [2] of the same compound?
A: Its activity change, negative = inhibition is 0.733%.

Q: What about the activity change, negative = inhibition [3] of the same compound?
A: Its activity change, negative = inhibition is -6.73%.

Q: What about the activity change, negative = inhibition [4] of the same compound?
A: Its activity change, negative = inhibition is 3.51%.

Q: And the activity change, negative = inhibition [5]?
A: The activity change, negative = inhibition was 5.13%.

Q: With `CCN1CCN(C2(C(=O)NCCC3CCCCO3)Cc3ccccc3C2)CC1` (stereo not given) as the compound, how does the activity change, negative = inhibition [1] read?
A: Its activity change, negative = inhibition is -2.4%.

Q: What about the activity change, negative = inhibition [2] of the same compound?
A: Its activity change, negative = inhibition is -6.82%.

Q: And the activity change, negative = inhibition [3]?
A: Its activity change, negative = inhibition is -1.56%.

Q: And the activity change, negative = inhibition [4]?
A: The activity change, negative = inhibition was -10.8%.

Q: And the activity change, negative = inhibition [5]?
A: The activity change, negative = inhibition was -10.7%.

Q: How did the activity change, negative = inhibition [1] turn out when `COC(=O)c1ccc2c(C(=Nc3ccc(N(C)C(=O)CN4CCN(C)CC4)cc3)c3ccccc3)c(O)[nH]c2c1` was run?
A: Its activity change, negative = inhibition is -0.388%.

Q: And the activity change, negative = inhibition [2]?
A: The activity change, negative = inhibition was 12.8%.

Q: And the activity change, negative = inhibition [3]?
A: Its activity change, negative = inhibition is -2.95%.

Q: And the activity change, negative = inhibition [4]?
A: Its activity change, negative = inhibition is -38.3%.

Q: And the activity change, negative = inhibition [5]?
A: The activity change, negative = inhibition was -7.46%.

Q: With `Cc1ccc([C@@H]2CN(c3cc(N4CCC(O)CC4)ncn3)C[C@H]2N(C)C)cc1` as the compound, how does the activity change, negative = inhibition [1] read?
A: Its activity change, negative = inhibition is -1.13%.

Q: And the activity change, negative = inhibition [2]?
A: The activity change, negative = inhibition was 2.05%.

Q: And the activity change, negative = inhibition [3]?
A: Its activity change, negative = inhibition is -59.8%.

Q: What about the activity change, negative = inhibition [4] of the same compound?
A: The activity change, negative = inhibition was -4.04%.

Q: What about the activity change, negative = inhibition [5] of the same compound?
A: Its activity change, negative = inhibition is 0.17%.

Q: With `C/C=C(\C)C(=O)OC1CC2C(CC=C3CC(OC4CC(OC)C(OC5CC(OC)C(OC6CC(OC)C(OC7CC(OC)C(OC8CC(OC)C(OC9OC(CO)C(O)C(O)C9O)C(C)O8)C(C)O7)C(C)O6)C(C)O5)C(C)O4)CCC32C)C2(O)CCC(C(C)=O)C12C` (stereo not given) as the compound, how does the activity change, negative = inhibition [1] read?
A: The activity change, negative = inhibition was 3.96%.

Q: And the activity change, negative = inhibition [2]?
A: Its activity change, negative = inhibition is 17.9%.

Q: What about the activity change, negative = inhibition [3] of the same compound?
A: Its activity change, negative = inhibition is 7.96%.

Q: What about the activity change, negative = inhibition [4] of the same compound?
A: Its activity change, negative = inhibition is 5.37%.

Q: What about the activity change, negative = inhibition [5] of the same compound?
A: The activity change, negative = inhibition was 9.61%.

Q: For `COc1ccc(-c2nn3c(SCC(=O)Nc4cc(Cl)ccc4OC)nnc3[nH]c2=O)cc1`, which activity change, negative = inhibition [1] is on record?
A: The activity change, negative = inhibition was -4.43%.

Q: And the activity change, negative = inhibition [2]?
A: Its activity change, negative = inhibition is 2.56%.

Q: What about the activity change, negative = inhibition [3] of the same compound?
A: Its activity change, negative = inhibition is -6.25%.

Q: What about the activity change, negative = inhibition [4] of the same compound?
A: Its activity change, negative = inhibition is -12.4%.

Q: What about the activity change, negative = inhibition [5] of the same compound?
A: The activity change, negative = inhibition was -6.47%.
